Results reported in article PMC7160150.
Results are given in words; binding and its absence hold for the method and conditions named. Binding seen in cells or lysates may run through a third protein. Some binding calls cover weakened binding; strength is not graded here. Sequences can lack the tags named with a protein. Blank lines part the entries; values can stand above or below the binder they belong to.

How the values were obtained:
Details in all cases: remark: other sources report otherwise
[1] = target: MYC3-nLUC (Arabidopsis thaliana (Col-0)), Q9FIP9; assay: split reporter; split luciferase complementation; nLUC and cLUC fusions coexpressed in N. benthamiana leaves; luciferase activity detected 2 days after infiltration
[2] = target: MYC3-CFP (Arabidopsis thaliana (Col-0)), Q9FIP9; assay: FRET or BRET; FRET-FLIM; CFP and YFP fusions coinfiltrated into N. benthamiana leaves; CFP fluorescence lifetime 2 days after coinfiltration
[3] = target: GFP-MYC3 (Arabidopsis thaliana (Col-0)), Q9FIP9; assay: co-IP; total protein extracts of transgenic Arabidopsis plants expressing Myc- and GFP-tagged proteins; GFP-Trap agarose beads, 4 °C 1 h; 50 mM Tris-HCl pH 7.5, 150 mM NaCl, Triton X-100; blot with anti-GFP and anti-Myc
[4] = target: cYFP-MYC3 (Arabidopsis thaliana (Col-0)), Q9FIP9; assay: split reporter; bimolecular fluorescence complementation; cYFP and nYFP fusions coinfiltrated into N. benthamiana leaves; YFP fluorescence 2 days after infiltration

B2: PPD1-YFP, Q7XA73 1-313 (protein)
chain: MDVGVSPAKSILAKPLKLLTEEDISQLTREDCRKFLKDKGMRRPSWNKSQAIQQVLSLKALYEPGDDSGAGIFRKILVSQPVNPPRVTTTLIEPSNELEACGRVSYPEDNGACHRMDSPRSAEFSGGSGHFVSEKDGHKTTISPRSPAETSELVGQMTIFYSGKVNVYDGIPPEKARSIMHFAANPIDLPENGIFASSRMISKLISKEKMMELPQKGLEKANSSRDSGMEGQANRKVSLQRYREKRKDRKFSKAKKCPGVASSSLEMFLNCQPRMKAAYSQNLGCTGSPLHSQSPESQTKSPNLSVDLNSEGI
binding [2]: binds

B3: Myc-PPD1, Q7XA73 1-313 (protein)
chain: MDVGVSPAKSILAKPLKLLTEEDISQLTREDCRKFLKDKGMRRPSWNKSQAIQQVLSLKALYEPGDDSGAGIFRKILVSQPVNPPRVTTTLIEPSNELEACGRVSYPEDNGACHRMDSPRSAEFSGGSGHFVSEKDGHKTTISPRSPAETSELVGQMTIFYSGKVNVYDGIPPEKARSIMHFAANPIDLPENGIFASSRMISKLISKEKMMELPQKGLEKANSSRDSGMEGQANRKVSLQRYREKRKDRKFSKAKKCPGVASSSLEMFLNCQPRMKAAYSQNLGCTGSPLHSQSPESQTKSPNLSVDLNSEGI
binding [3]: binds

B6: PPD2-YFP, Q8GY55 1-315 (protein)
chain: MDVGVTTAKSILEKPLKLLTEEDISQLTREDCRKFLKEKGMRRPSWNKSQAIQQVLSLKALYEPGDDSGAGILRKILVSQPPNPPRVTTTLIEPRNELEACGRIPLQEDDGACHRRDSPRSAEFSGSSGQFVADKDSHKTVSVSPRSPAETNAVVGQMTIFYSGKVNVYDGVPPEKARSIMHFAANPIDLPENGIFASSRMISKPMSKEKMVELPQYGLEKAPASRDSDVEGQANRKVSLQRYLEKRKDRRFSKTKKAPGVASSSLEMFLNRQPRMNAAYSQNLSGTGHCESPENQTKSPNISVDLNSDLNSEDN
binding [2]: binds

B7: Myc-PPD2, Q8GY55 1-315 (protein)
chain: MDVGVTTAKSILEKPLKLLTEEDISQLTREDCRKFLKEKGMRRPSWNKSQAIQQVLSLKALYEPGDDSGAGILRKILVSQPPNPPRVTTTLIEPRNELEACGRIPLQEDDGACHRRDSPRSAEFSGSSGQFVADKDSHKTVSVSPRSPAETNAVVGQMTIFYSGKVNVYDGVPPEKARSIMHFAANPIDLPENGIFASSRMISKPMSKEKMVELPQYGLEKAPASRDSDVEGQANRKVSLQRYLEKRKDRRFSKTKKAPGVASSSLEMFLNRQPRMNAAYSQNLSGTGHCESPENQTKSPNISVDLNSDLNSEDN
binding [3]: binds

More lines, now with the values ahead:

binding [1]: binds
B1: cLUC-PPD1, Q7XA73 1-313 (protein)
chain: MDVGVSPAKSILAKPLKLLTEEDISQLTREDCRKFLKDKGMRRPSWNKSQAIQQVLSLKALYEPGDDSGAGIFRKILVSQPVNPPRVTTTLIEPSNELEACGRVSYPEDNGACHRMDSPRSAEFSGGSGHFVSEKDGHKTTISPRSPAETSELVGQMTIFYSGKVNVYDGIPPEKARSIMHFAANPIDLPENGIFASSRMISKLISKEKMMELPQKGLEKANSSRDSGMEGQANRKVSLQRYREKRKDRKFSKAKKCPGVASSSLEMFLNCQPRMKAAYSQNLGCTGSPLHSQSPESQTKSPNLSVDLNSEGI

binding [4]: binds
B4: nYFP-PPD1, Q7XA73 1-313 (protein)
chain: MDVGVSPAKSILAKPLKLLTEEDISQLTREDCRKFLKDKGMRRPSWNKSQAIQQVLSLKALYEPGDDSGAGIFRKILVSQPVNPPRVTTTLIEPSNELEACGRVSYPEDNGACHRMDSPRSAEFSGGSGHFVSEKDGHKTTISPRSPAETSELVGQMTIFYSGKVNVYDGIPPEKARSIMHFAANPIDLPENGIFASSRMISKLISKEKMMELPQKGLEKANSSRDSGMEGQANRKVSLQRYREKRKDRKFSKAKKCPGVASSSLEMFLNCQPRMKAAYSQNLGCTGSPLHSQSPESQTKSPNLSVDLNSEGI

binding [4]: binds
B5: nYFP-PPD2, Q8GY55 1-315 (protein)
chain: MDVGVTTAKSILEKPLKLLTEEDISQLTREDCRKFLKEKGMRRPSWNKSQAIQQVLSLKALYEPGDDSGAGILRKILVSQPPNPPRVTTTLIEPRNELEACGRIPLQEDDGACHRRDSPRSAEFSGSSGQFVADKDSHKTVSVSPRSPAETNAVVGQMTIFYSGKVNVYDGVPPEKARSIMHFAANPIDLPENGIFASSRMISKPMSKEKMVELPQYGLEKAPASRDSDVEGQANRKVSLQRYLEKRKDRRFSKTKKAPGVASSSLEMFLNRQPRMNAAYSQNLSGTGHCESPENQTKSPNISVDLNSDLNSEDN

binding [1]: binds
B8: cLUC-PPD2, Q8GY55 1-315 (protein)
chain: MDVGVTTAKSILEKPLKLLTEEDISQLTREDCRKFLKEKGMRRPSWNKSQAIQQVLSLKALYEPGDDSGAGILRKILVSQPPNPPRVTTTLIEPRNELEACGRIPLQEDDGACHRRDSPRSAEFSGSSGQFVADKDSHKTVSVSPRSPAETNAVVGQMTIFYSGKVNVYDGVPPEKARSIMHFAANPIDLPENGIFASSRMISKPMSKEKMVELPQYGLEKAPASRDSDVEGQANRKVSLQRYLEKRKDRRFSKTKKAPGVASSSLEMFLNRQPRMNAAYSQNLSGTGHCESPENQTKSPNISVDLNSDLNSEDN
